Laboratory results from patent publication US20190117713A1, “ANTIBACTERIAL COMPOSITION” (FermBiotics Holding ApS, priority 2016, published 2019).

System: streptococcus infection
Assay: Treatment of a patient suffering from a streptococcus infection (case report)
Settings: 800 mg, 1 pill 3 times a day for 10 days

phenoxymethylpenicillinsodium
Effect on streptococcus infection after a first treatment: no effect
